Inhibition data for 60 compounds are collected here from PubChem BioAssay AID485344 (National Center for Advancing Translational Sciences (NCATS), 2010).

The inhibition is the change of the read-out against control, counted positive when it falls.

Screen size: about 340,000 compounds; about 6,900 (2%) were called active. Rule as the data show it: active = inhibition above about 30%; inactive = below that, where a call was filed. The list shows a part of the results, in another mix than the full data. The source gives no active or inactive call for entries shown without one.

UniProt P14416, sequence (P14416 whole entry, looked up): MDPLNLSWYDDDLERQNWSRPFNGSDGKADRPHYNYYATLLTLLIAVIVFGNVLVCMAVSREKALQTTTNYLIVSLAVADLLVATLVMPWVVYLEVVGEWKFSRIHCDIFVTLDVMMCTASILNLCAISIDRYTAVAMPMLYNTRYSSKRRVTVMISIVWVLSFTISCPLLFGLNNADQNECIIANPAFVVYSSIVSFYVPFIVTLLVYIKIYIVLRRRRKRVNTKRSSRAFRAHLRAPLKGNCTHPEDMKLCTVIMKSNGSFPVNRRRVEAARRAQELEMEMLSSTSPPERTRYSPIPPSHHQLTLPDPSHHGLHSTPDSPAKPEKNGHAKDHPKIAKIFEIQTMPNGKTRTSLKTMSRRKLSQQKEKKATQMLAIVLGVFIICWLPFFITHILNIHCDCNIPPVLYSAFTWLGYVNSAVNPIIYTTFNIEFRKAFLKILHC

The target of the test is D(2) dopamine receptor (Homo sapiens) (UniProt P14416). As to the kind of experiment: HTS Assay for Allosteric Antagonists of the Human D2 Dopamine Receptor: Primary Screen for Antagonists. Also: 0% is about no effect. The following applies: HEK293 TREx D2 cells, calcium flux, dopamine EC80; at 10 µM; stronger effect = higher value. The gist of the method:
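Tetracycline-induced HEK293 T-REx cells expressing D2 force-coupled to calcium signalling were dye-loaded, exposed to compound for 180 s, then challenged with an EC80 of dopamine; calcium flux was followed kinetically for a further 180 s.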
On the technique in general: A change in cytosolic calcium serves as a functional read-out for many receptors and channels.
Turning to `Cc1c(NC(=O)c2ccccc2)cc(C(C)C)c(O)c1S(=O)(=O)c1ccc(Cl)cc1`, the inhibition stood at 4.81%.

For the compound `CCOCCCn1c(SCC(=O)NCCCOC)nc2c(sc3ccccc32)c1=O`, the inhibition was -22.1%.

Take `CCOCCCNC(=O)c1c[nH]c2ccc(S(=O)(=O)Nc3cccc(Cl)c3C)cc2c1=O`: the inhibition came to 11.2%.

Turning to `CCOC(=O)N1CCc2c(sc3c2c(=O)n(-c2ccc(Cl)cc2)c(=O)n3Cc2cccc(C)c2)C1`, the inhibition was -4.71%.

Consider `O=C(C1COc2ccccc2O1)N1CCc2ccccc21` (stereo not given), for which the inhibition is active: 35.3%.

Consider `Cc1cc2c(cc1S(=O)(=O)N(C)CC(=O)Nc1cccc(C#N)c1)OCC(=O)N2`, for which the inhibition was -14.3%.

In the case of `CC1=Nc2cc(C(=O)NC3CCCC3)ccc2Sc2ccc(Br)cc21`, the inhibition turned out to be 6.53%.

For `COCCCNC(=O)C1CCCN(S(=O)(=O)c2ccc3c(c2)oc(=O)n3C)C1` (stereo not given), the inhibition is -4.35%.

Regarding `CCOC(=O)c1cccc(NC(=O)CCn2nc(C)c3c(C)n(-c4ccccc4)nc3c2=O)c1`, the inhibition was -12.8%.

`NS(=O)(=O)c1ccc(-c2ccc(/C=C3\SC(=O)NC3=O)o2)cc1`: the inhibition is active: 47.3%.

Take `CCN(CC)c1ccc(NC(=O)CN2CCN(CC(=O)Nc3ccccc3OC)CC2)cc1`: the inhibition worked out at 18.7%.

On to `COc1ccccc1CNC(=O)c1ccc(CN2CC(=O)N3CCCCC3C2=O)cc1` (stereo not given), for which the inhibition worked out at 16%.

Turning to `Cc1ccc(C)c(NC(=O)N2CCC(N3CCN(Cc4ccc(F)cc4)C(=O)C3=O)CC2)c1`, the inhibition was determined as 1.09%.

As for `COc1ccccc1C(=O)NCC1(N2CCN(C)CC2)CCCCC1`, the inhibition was 22.5%.

Take `CCNC(=O)CC1C(=O)N(c2ccc(F)cc2)C(=O)N1Cc1ccc(OC)c(OC)c1` (stereo not given): the inhibition stood at 9.82%.

With `COc1ccccc1/C=C/CN1CCCC(CO)(CCc2ccccc2)C1` (stereo not given), the inhibition is active: 71.4%.

Take `Cc1c(C(=O)Nc2ccc(S(=O)(=O)Nc3ncccn3)cc2)oc2ccccc12`: the inhibition was active: 46.1%.

Take `Cc1ccc(C(=O)N2CCN(c3cccc(Cl)c3)CC2)cc1-n1c(C)nc2cccnc21`: the inhibition worked out at 2.01%.

Consider `CS(=O)(=O)c1ccc(Cl)c(S(=O)(=O)NCc2ccccc2)c1`, for which the inhibition is active: 35%.

Consider `O=C(c1ccc2c(c1)N(Cc1cccc(Cl)c1)C(=O)c1ccccc1S2(=O)=O)N1CCc2ccccc21`, for which the inhibition came out at 14%.

In the case of `CCc1ccccc1N(CC)C(=O)C(=O)Nc1ccc2nc3n(c(=O)c2c1)CCCCC3`, the inhibition was 0.738%.

For `COc1cc(Cl)c(C)cc1NC(=O)C1CCCN(c2ncnc3onc(-c4ccc(F)cc4)c23)C1` (stereo not given), the inhibition was 4.54%.

`O=C(Nc1cccc(-n2cnnn2)c1)c1ccc(C(F)(F)F)cc1`: the inhibition is active: 57.3%.

For `Cn1c(COc2ccccc2C(C)(C)C)nc2ccccc21`, the inhibition is -8.5%.

For the compound `COc1ccc(S(=O)(=O)c2cc3cc(C(C)(C)C)cc(O)c3oc2=O)cc1`, the inhibition is 24.1%.

For `CCCCCn1c(=N)c(S(=O)(=O)c2ccc(C)cc2)cc2c(=O)n3cc(C)ccc3nc21`, the inhibition is -1.6%.

In the case of `CC(C)(CC(=O)NCc1ccc(Cl)cc1Cl)CC1=NS(=O)(=O)c2ccccc2N1`, the inhibition was -11.1%.

As for `COC(=O)c1ccc(NS(=O)(=O)c2ccc3c(c2)n(C)c(=O)c(=O)n3C)cc1`, the inhibition is 4.92%.

As for `CCOC(=O)c1ccc(CN(Cc2ccc(F)cc2)S(=O)(=O)c2ccc(F)c(C(=O)Nc3ccccc3C(F)(F)F)c2)cc1`, the inhibition is -25.5%.

For `Cn1c2c(c(=O)n(C)c1=O)C(c1ccccc1C(F)(F)F)CC(=O)N2` (stereo not given), the inhibition amounted to 1.4%.

As for `Cc1ccn2c(=O)cc(COc3ccc(NC(=O)C(C)(C)C)cc3)nc2c1`, the inhibition was 7.61%.

For the compound `COC(=O)c1c(NC(=O)C(=O)NCC2CCCO2)sc2c1CC(C)(C)OC2` (stereo not given), the inhibition was active: 36.4%.

`CC(=O)N1c2ccc(S(=O)(=O)N3CCCC3C(=O)Nc3ccc(C)cc3)cc2CC1C` (stereo not given): the inhibition is active: 36.7%.

As for `COC(=O)c1ccccc1NC(=O)CSc1n[nH]c(C)n1`, the inhibition amounted to 0.303%.

For the compound `CCS(=O)(=O)N1CCc2cc(C(=O)NC(C)c3ccccc3)ccc21` (stereo not given), the inhibition was 13.6%.

As to `CC(C)Oc1ccc(CNC(=O)CN2C(=O)c3cccnc3Oc3ccc(Cl)cc32)cc1`, the inhibition is -1.69%.

As for `O=c1c2sc3ccccc3c2n(Cc2cccc(C(F)(F)F)c2)c(=O)n1-c1ccccc1`, the inhibition was -18.4%.

In the case of `COc1ccc(-n2c(SC)nc3sc4c(c3c2=O)CCN(C(C)=O)C4)cc1`, the inhibition was 15.3%.

`COc1ccc(CNC(=O)C2CCN(C(=O)c3cnn(-c4ccccc4)c3-n3cccc3)CC2)cc1`: the inhibition turned out to be 3.22%.

Regarding `Cc1ccc(NC(=O)CSc2nnc(-c3cc4occc4n3C)n2-c2ccccc2C)c(C)c1`, the inhibition is -3.09%.

As to `COc1ccc(N2CCN(CCCNC(=O)c3nnc(Cc4ccccc4Cl)o3)CC2)cc1`, the inhibition was determined as 6.34%.

Regarding `CCC(=O)c1ccccc1OCCCN1CCC(Cc2ccccc2)CC1`, the inhibition is active: 97.5%.

As for `CCS(=O)(=O)N1CC(=O)N(c2cc(C)cc(C)c2)C(C)(C(=O)NC2CCCCC2)C1` (stereo not given), the inhibition was -7.15%.

As for `Cc1cc(C)n2c(Nc3ccc4c(c3)OCCO4)c(-c3ccccc3)nc2n1`, the inhibition came to 4.71%.

As for `COc1ccc(/C=C/C(=O)Nc2cc(-c3nc4ccccc4o3)ccc2OC)cc1`, the inhibition was -0.893%.

For the compound `CC(=O)c1ccc(NC(=O)CSc2nnc(-c3ccncc3)n2-c2ccccc2)cc1`, the inhibition is -0.694%.

With `CCOc1cc(/C=N\NC(=O)OC(C)(C)C)ccc1OC(=O)c1ccco1`, the inhibition is active: 31.3%.

With `Cc1ccc(S(=O)(=O)c2[nH]c(-c3ccccc3)nc2SC(C)C(=O)O)cc1` (stereo not given), the inhibition was -4.81%.

Turning to `O=C(c1ccccc1)N1CCC(c2nc3ccccc3o2)CC1`, the inhibition was 1.06%.

As to `CN1C(=O)Cc2cc(S(=O)(=O)CCC(=O)Nc3ccc(Cl)cc3)ccc21`, the inhibition was 15.7%.

Consider `COc1ccc(CCNC(=O)c2cnn(-c3cccc(C)c3)c2C2CCNCC2)cc1OC`, for which the inhibition worked out at 3.87%.

Regarding `CC(=O)c1ccc(NC(=O)c2cc3c([nH]c2=O)CC(c2ccccc2)CC3=O)cc1` (stereo not given), the inhibition is 18%.

As to `COc1ccc(OC)c(CNS(=O)(=O)c2cc(-c3onc(C)c3C)ccc2C)c1`, the inhibition worked out at 4.77%.

Consider `Cc1cc(F)ccc1NC(=O)CCS(=O)(=O)c1cc2c3c(c1)CCN3C(=O)CC2`, for which the inhibition was determined as 1.13%.

With `CCCCc1nn2c(=O)cc(COC(=O)c3cccc(NC(=O)c4cccs4)c3)nc2s1`, the inhibition worked out at 13.1%.

With `CC(=O)Nc1ccc(NC(=O)c2csnn2)cc1`, the inhibition is 10%.

On to `CCOC(=O)C1CCN(Cc2ccc(OCc3ccccc3)cc2)CC1`, for which the inhibition is active: 59.2%.

`COCCN1C(=O)N(c2cccc(OC)c2)C(=O)C1CC(=O)Nc1ccccc1` (stereo not given): the inhibition came to 16.5%.

On to `COc1cc2ccccc2cc1C(=O)N1CCN(c2nc3c(F)cccc3s2)CC1`, for which the inhibition was -4.55%.

As to `O=C(NCc1ccc(Cl)cc1)C(=O)NCC(c1ccc2c(c1)OCO2)N1CCOCC1` (stereo not given), the inhibition was -2.8%.
